The full ranking holds about 4,500 sequences; the median of “median log2 fold change of GCK-ALFA target abundance (FLAG IP / Myc IP barcode read proportion)” is about 0.078, and the lowest 2% start at about -0.6. The list shows a part of the results.

Data on 29 molecules can be found in the supplement of paper PMC12632987.

Sequences and labels used below:
B1: GBRAP_78_6686 (protein)
chain: KVEELLDKALEHLNKAAKILAKMNTEESLDILGVVIDAAETVWEAEEGEADLEELEEALKKLEEALKEVKKIDSEEAKKAAEELEKAIKALKEAIKLLKE
B2: GBRAP_150_3893 (protein)
chain: MLEELLTIADTNADILEGMIESGEFNLNVLKTLAKVTEEEIKEAPEEIAKELKKAAEALKKAIKLIEAGAAPEEIKKELTKAAEAYKKAAELLEKKIKEE
B3: GBRAP_11_2707 (protein)
chain: KKEKLKEIAKLAAEAAALTEQLLKEGVDNKELQAKLTAKIKELTELVKKYADESLKKLAEIAKELWEKALADPENKEQYLKELLATLRVLEGQALLEIEE
B4: GBRAP_52_6077 (protein)
chain: MEARIEATADAIYEAIAAGDKAKALALLAAAIKEFSVEEITRLLELTARRVASLGDEAHELFVEVLDEGYDLLLAAGISEDDALAIVGAAEAALARAVAA
B5: GBRAP_125_3052 (protein)
chain: GLEEVIEALAALARLMGYSEEEVEELARLAREHGVKGALIALLLAEGEEEAAELAEKLSEEAVKEVLLEFLKWLKEHPDITKEEALEKLLELLKKALEKE
B6: GBRAP_160_4193 (protein)
chain: SEEVEKLLKEIDEIAEEAIEMIEGQTHEERLVIVEMAFGEILMLLHESPVVSDETVDKVDEIADEVVATLKANPDLTEEEIKALLREAVEKIKEIIKEDA
B7: GBRAP_9_7122 (protein)
chain: MEEMIEKMAEVVKDMIEDISLAVPSFTEEEKEEWLARVEELKEEALKDKSLTPEEIAERFKKLVEEIKEEVKKKVSPELAKIVDAISYTALEEIDEIVEE
B8: GBRAP_26_5486 (protein)
chain: GSREILDKLEEEVREILKDEPEEVRAAVVAEAINALIEFEEVVEKNINDEEKIEKAKKEALKEVDEFLKELGVPEDKREKVVKALEKALEEVEKEIKEKA
B9: GBRAP_160_4827 (protein)
chain: KASEEELFKLVDEERAEAIELIKGQTAEERAAIVAVEFGRFILELSENPEVSDELEEEVDAIARATVDTILANPDLTDAEVTALIEAAAAEIKEVIKKHL
B10: GBRAP_95_7065 (protein)
chain: SEDREIAEDLIDTAEDLVEIGAYEQAKRAAKAALEVLKEIGETGELALRAAEVLVEVAKATGDEEAAKAAKEALKAIKKAGGDEEKIEKLEKELEEAKKK
B11: GBRAP_160_4360 (protein)
chain: SEELKKLAEEIRKLREEFEEEAKDLSPEEVRILALGVLAEVGALIFHNEAVSDEVEDEIMEIIRKAEEEIRKNKDASPEEIVKITKEAFDKIIELVEKEA
B12: GBRAP_160_4605 (protein)
chain: MEEVEELMKEIRELIEEAVKMIEGESPEERLVIIKVTMGEILLLLDESPIVSEEIEEFADELADEVIETVEANPDLSVEEIRELLEEFLEKIEKKLKEEH
B13: GBRAP_80_6801 (protein)
chain: AEAELAAELARIAELDPELAERVREIIERARRMGVPTAALAELARAVAELLEVDPELARERVEELEEELRELEEEGDSAGAEAAVRVAAGEMLLEVEELE
B14: GBRAP_160_4288 (protein)
chain: SEKAEKLIKEIEEIAEEAIKMMVGQTREERVTIVRVAGGEVAMELIENEEISDETVDKVLAIWDEVAETIAANPDLTDEEIRELIEKAVEEAKKLVKEEA
B15: GBRAP_35_5605 (protein)
chain: ESEKEITEMLVAYIEDLTLAVPDAPVETLAAMVNSAIKSAEELVKEEKNNLEALKKLKEALEKLLKALEKHHGDVPEMQEQIAKVKELIEELKKKIKEIE
B16: GBRAP_52_6374 (protein)
chain: SVEEVAKLLKEALELIIEGGEEEEIKKLAKEILKYSDEEILKAAELVAKEIKKLSKEEAEKYLEAAFELADILIEVGLDELVASNIEAEIGKAAYEVEKK
B17: GBRAP_52_6221 (protein)
chain: SAEEARAAAEEIVEIVETEGVEAAVERLIALAKENSPEFVKAVLAEIARLAESKSLETAEALLDALLAAEDALIAAGVSEADVSDAIAALAAVAVKLEAA
B18: GBRAP_184_5146 (protein)
chain: KVLRVFIEAETVEEALEQTREAFEQAKAQGAKLQLFIELENATVEEVDELAKAVKELVDEYGLTDAQVTLVVEADEEEADKIIEAAEKHGIRVVVALEEE
B19: GBRAP_83_6935 (protein)
chain: AEKITVVANSDTIEEAFKIAIDLHKEEGLEVEIEIIITREDIEKLLEEFEKVAKEGVNVELRILLIGATEEEAKELKEKLEEIAKKYGVEVKVEVELVEP
B20: GBRAP_57_6443 (protein)
chain: MSRLEKAKKLAEKIKKMLEENAPKEEILKAFEELLDLLSKEELLDLALLLDPSTRADESKEELKKKLLALFKEALEKEGKEAAKEMVDLALGILEMSESE
B21: GBRAP_52_6100 (protein)
chain: MEERLEAYARELVAAAKAGDLERVTAILLRIVEEFSEEEVERTLERFAELVSKEPLEEAERMTDIALEALDRVAEETGREELMDDAEARLAAAAYNKTLE
B22: GBRAP_160_4785 (protein)
chain: MERVEKVTKKFKEAAEEALKLSEGETVEERANIFDVELGSAILELIEEGLLNDEEEEVAAEVRDELVEKILENPNLTEEELKKLAEEAVEKLREKLKELE
B23: GBRAP_95_7084 (protein)
chain: EEELEEAEALMATAVDLYDAGLEEQAARAIRDALDELEELGYKVADKELLERLLRHFVALALRHFDAEEVERALALAEASGAPAEIIAALRAALAALRAA
B24: GBRAP_83_6901 (protein)
chain: AEKIAIAVPGDRVEEAVDIAIDLHKNEGYEVELEILATREELPKVRAAVERLFKAGVDAEVTILGEGITPEEAEALEKELRAAAAAAGSKMKITVEAIEP
B25: GBRAP_160_4197 (protein)
chain: MEKIEKIIESIREETERVIKALDEESVEEVAVFAAVEYGSVLMEAVELGEENDEILDIIAEAGDEIVKYLRENADASVEERKKKIREITEKAIERIKEAA
B26: GBRAP_83_6995 (protein)
chain: KEKITVAATGDHFLEAAEAAIDLHKEEGYEVELEFIATREDKEKVLEAVRKIAEAGVKTEITILAIGFSEEELEELEKELKKIAEEAGADIKITVEGIEL
B27: GBRAP_52_5937 (protein)
chain: MEARLRALLDEMIALVKAGDLEGARALAREAVATLSEEELEALIDLLAERALEAAPEDVEYVLELAEILAEELEAEGWDEVLADDLLARVSAAAYKNLQK
B28: GBRAP_128_3176 (protein)
chain: AVEEVKKRTEKKMEEIINSDVETARKIAEELFEELKTLSPEEREAAVEVILENLPKLTAEKLEVLADVARKHRDEFDPEGAELVADLEVEALNEALELEE
B29: GBRAP_184_5337 (protein)
chain: KTLEVYIPNKSLEEIKKEIEKALKKAAKENASLLITIEAEGLSTEELLELLKYIGEKAKELGIKDVTIGLDIEVNEEDADKLLKVADEYGIRLTVALSDE

GABARAP, O95166, sequence (O95166 whole entry, the tested form may be a part): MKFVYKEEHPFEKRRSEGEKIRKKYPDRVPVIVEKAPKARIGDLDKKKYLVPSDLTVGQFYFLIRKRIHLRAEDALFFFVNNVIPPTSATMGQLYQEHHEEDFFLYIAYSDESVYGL

The target of the test is GABARAP, O95166. The test is described as follows: median log2 fold change of GCK-ALFA target abundance (FLAG IP / Myc IP barcode read proportion) (log2 ratio); each designed protein is fused to an ALFA-tag nanobody in HEK293 cells to bring the named protein to FLAG-tagged glucokinase (GCK); Myc marks an untargeted standard; higher = target protein stabilised (more abundant). Conditions: target protein: 3xFLAG-MCP-GCK-ALFA reporter; HEK293 landing pad (RPLP). The method in brief:
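HEK293 landing-pad cells received a recombined binder library fused to the ALFA nanobody and were induced with 2 μg mL^−1 doxycycline, then transfected with a plasmid encoding a FLAG-tagged target and a Myc-tagged standard. Lysates were collected after 48 h for anti-FLAG and anti-Myc immunoprecipitation, and the circular RNA barcodes were reverse transcribed, amplified and sequenced. Target abundance for each binder is the median log2 ratio of FLAG to Myc barcode read proportions. Barcodes had to reach a proportion of at least 10^−7 in both replicates, each binder needed at least 3 barcodes per replicate, a pseudocount of 10^−6 was applied, and the two replicates were pooled.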
Take B1: the “median log2 fold change” value was -0.0389.
Take B2: the “median log2 fold change” value is 0.197.
Under B3 stands 0.13; under B4, -0.302.
With B5, the “median log2 fold change” value came to 0.0501.
Consider B6, for which the “median log2 fold change” value worked out at 0.0895.
B7: the “median log2 fold change” value turned out to be 0.067.
Consider B8, for which the “median log2 fold change” value stood at 0.333.
As to B9, the “median log2 fold change” value is -0.0977.
Consider B10, for which the “median log2 fold change” value came out at 0.0926.
For B11, the “median log2 fold change” value is 0.336.
As for B12, the figure is -0.173; as for B13, -0.2.
Consider B14, for which the “median log2 fold change” value is -0.352.
In the case of B15, the “median log2 fold change” value stood at 0.149.
On to B16, for which the “median log2 fold change” value is 0.096.
For B17, the “median log2 fold change” value came to 0.107.
As for B18, the “median log2 fold change” value was 0.135.
As to B19, the “median log2 fold change” value was 0.0279.
As to B20, the “median log2 fold change” value was 0.308.
As for B21, the “median log2 fold change” value was -0.366.
Under B22 stands 0.154; under B23, -0.692.
Take B24: the “median log2 fold change” value came to 0.00303.
As for B25, the figure is -0.0752; as for B26, 0.155.
B27: the “median log2 fold change” value was -0.441.
Under B28 stands 0.0821; under B29, 0.236.
